Assay results from the supplement of paper PMC12645437, “Orthogonal IMiD-Degron Pairs Induce Selective Protein Degradation in Cells” (ACS Chemical Biology, 2025).
The list shows a part of the results.

Molecular target: no compound (DMSO)
Assay: log2 fold change of degron read counts, EGFP-low vs EGFP+ sorted cells; higher = lower degron-EGFP level without compound (poor expression or instability)
Settings: compound: DMSO control; 18 h
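Also: jurkat cells carrying a lentiviral library of mutant zinc finger degrons fused to EGFP plus mCherry, mCherry+ cells FACS sorted, degron abundance counted by next-generation sequencing.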

Row | Sequence | log2 fold change of degron read counts
1 | FGCEICGRWFTQKGNLLRHIKL | -0.39
2 | FSCNQCGRSFTQKGNLLRHIKL | -0.503
3 | FLCPICGRWFTQKGNLLRHIKL | 1.16
4 | FMCDQCGAHFTQKGNLLRHIKL | -1.49
5 | FACPVCGANFTQKGNLLRHIKL | -0.705
6 | FICNQCGHFFTQKGNLLRHIKL | 0.245
7 | FKCNQCGHHFTQKGNLLRHIKL | 0.205
8 | FICEICGHLFTQKGNLLRHIKL | -0.722
9 | FWCDQCGAYFTQKGNLLRHIKL | 0.253
10 | FWCDVCGALFTQKGNLLRHIKL | 0.687
11 | FYCEICGHSFTQKGNLLRHIKL | -1.38
12 | FACPICGAAFTQKGNLLRHIKL | -0.369
13 | FRCPVCGACFTQKGNLLRHIKL | -0.938
14 | FNCPQCGACFTQKGNLLRHIKL | -0.819
15 | FICPVCGANFTQKGNLLRHIKL | 0.0773
16 | LTCPICGFLCTQKGNLLRHIKL | 1.21
17 | LLCEICGFPCTQKGNLLRHIKL | 0.384
18 | FICEICGHCFTQKGNLLRHIKL | -1.4
19 | FNCNQCGAMFTQKGNLLRHIKL | -0.055
20 | FLCDICGAQFTQKGNLLRHIKL | -1.09
21 | FTCEICGHYFTQKGNLLRHIKL | -0.889
22 | FACDICGAIFTQKGNLLRHIKL | -0.189
23 | FVCEICGHQFTQKGNLLRHIKL | -2.92
24 | FHCPVCGAYFTQKGNLLRHIKL | 0.484
25 | FYCPICGHRFTQKGNLLRHIKL | -2.39

Row | Sequence | log2 fold change of degron read counts
26 | FNCPICGHPFTQKGNLLRHIKL | -0.0382
27 | FACNQCGRDFTQKGNLLRHIKL | 0.153
28 | FICPICGHYFTQKGNLLRHIKL | -0.0139
29 | FCCPQCGAWFTQKGNLLRHIKL | 0.551
30 | FYCEICGRNFTQKGNLLRHIKL | -0.949
31 | FECEVCGAQFTQKGNLLRHIKL | -1.47
32 | FECPVCGAIFTQKGNLLRHIKL | -0.189
33 | FICDVCGAIFTQKGNLLRHIKL | -1.37
34 | FTCDQCGASFTQKGNLLRHIKL | -1.93
35 | FWCPICGATFTQKGNLLRHIKL | 0.142
36 | FLCPQCGAQFTQKGNLLRHIKL | -1.01
37 | FWCEQCGAHFTQKGNLLRHIKL | -0.893
38 | FNCNQCGAHFTQKGNLLRHIKL | -0.233
39 | LYCEICGFVCTQKGNLLRHIKL | 0.553
40 | FSCDICGAFFTQKGNLLRHIKL | -0.167
41 | FQCPICGRLFTQKGNLLRHIKL | 0.802
42 | FECEICGRAFTQKGNLLRHIKL | -2.67
43 | FVCNQCGRFFTQKGNLLRHIKL | 0.565
44 | FKCSVCGHKFTQKGNLLRHIKL | -0.831
45 | FACSVCGHDFTQKGNLLRHIKL | -0.939
46 | FGCPICGHCFTQKGNLLRHIKL | -0.132
47 | FVCDVCGATFTQKGNLLRHIKL | -2.95
48 | LHCPICGFECTQKGNLLRHIKL | 0.0807
49 | FHCNQCGHIFTQKGNLLRHIKL | 0.417
50 | FVCDVCGAKFTQKGNLLRHIKL | -2.64
